Reference: PubChem BioAssay AID686978 (National Center for Advancing Translational Sciences (NCATS), 2013)
The campaign covered roughly 420,000 compounds. About 64,000 (15%) were called active. Inconclusive results, whose numbers are uncertain, are shown with a selection of clear calls. Calls follow the shape of the dose curve; as a rule, active = well fitted inhibition curve with a large enough effect; inconclusive = small, poorly fitted or top-dose-only effect; inactive = flat fitted curve, though single readings scatter. No potency is given beside an inconclusive call; the fits are too rough.

experiment: qHTS for Inhibitors of human tyrosyl-DNA phosphodiesterase 1 (TDP1): qHTS in cells in absence of CPT; settings: DT40 Tdp1-/- hTDP1 cells, no CPT, ATP luminescence, 48 h; activity change, negative = growth inhibition: at 46.2 µM (top of the series) unless noted; also: nearly all actives have a fitted effect of over 55% in size
Summary of the method: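 No-CPT arm: Tdp1-/-;hTDP1 DT40 cells (400/well) plus compounds, incubated ≥48 hr at 37 °C. Readout CellTiter-Glo luminescence.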
% is scaled to controls: 0 for no effect and ±100 for the full control effect; potency is read from the fitted curve at half-maximal effect; tags tell the direction and shape of the fitted curve.

Row | Structure (SMILES) | Potency | activity change, negative = growth inhibition
1 | CCCNc1nc(Cl)nc(Nc2ccc(Cl)cc2)n1 | inconclusive [inhibitor, single point] | 
2 | COc1ccc(OC)c(N(CC(=O)Nc2cccnc2)S(=O)(=O)c2ccc(C)cc2)c1 | inconclusive [inhibitor, single point] | 
3 | O=C(C(c1ccccc1)c1ccccc1)N1CCN(Cc2ccco2)CC1 | inconclusive [inhibitor, partial curve] | 
4 | COc1cc(NC(=O)c2cn(C3CCCC3)c(=O)c3c2c2ccccc2n3C)cc(OC)c1OC | active: 18.4 µM | 
5 | O=C(C(=O)N1CCCN(Cc2ccc(F)cc2)CC1)c1ccccc1 | inconclusive [inhibitor, single point] | 
6 | CCOC(=O)C(Cc1ccc(O)cc1)NC(=O)c1cc2c(cn1)[nH]c1ccccc12 (stereo unspecified) | inactive | 
7 | O=C(COc1ccccc1C(=O)NCC1CCCO1)Nc1ccc(Cl)cc1Cl (stereo unspecified) | inconclusive [inhibitor, single point] | 
8 | Cn1nccc1C(=O)Nc1cccc(C(F)(F)F)c1 | inactive | 
9 | CCOc1ccccc1NC(=O)Cc1noc2ccc(C)cc12 | inconclusive [inhibitor, single point] | 
10 | Cc1ccc(C(=O)N(Cc2cccnc2)Cc2cc3cc(C)ccc3n3nnnc23)cc1 | inconclusive [inhibitor, single point] | 
11 | COc1ccc(S(=O)(=O)N2CCCCC2c2cc(C(=O)NCc3ccccc3)no2)cc1 (stereo unspecified) | inconclusive [inhibitor, single point] | 
12 | O=c1ccc2ccccc2n1Cc1cccc(F)c1 | inconclusive [inhibitor, partial curve, poor fit] | 
13 | CCCOC(=O)c1ccc(NC(=O)/C=C/c2cccs2)cc1 | active: 18.4 µM | 
14 | COc1cc(NC(=O)c2ccco2)c(OC)cc1NC(=O)c1cc(OC)c(OC)c(OC)c1 | active: 20.6 µM | 
15 | FC(F)(F)c1cccc(Cc2noc(CN3C[C@@H]4CCC[C@H]3C4)n2)c1 | inactive | 
16 | Cc1cccc(NC(=O)CSc2ncnc3c2oc2ccccc23)c1 | inconclusive [inhibitor, single point] | 
17 | O=C(Cn1cnc2ccccc21)OCC(=O)N1CCc2ccccc2C1 | inactive | 
18 | O=C(N=C1SC2CS(=O)(=O)CC2N1CCc1ccccc1)C1CCCCC1 (stereo unspecified) | inactive | 
19 | C=CCn1c(=O)c2ccccc2n2c(SCc3csc(-c4ccccc4)n3)nnc12 | inconclusive [inhibitor, single point] | 
20 | CCCOc1ccccc1N/C(N)=N/c1nc(C)cc(C)n1 | inconclusive [inhibitor, single point] | 
21 | CC(C)COc1ccc(C(=O)NCc2ccco2)cc1 |  | inconclusive: -33.2% [inhibitor]
22 | COC(=O)C1=NN(c2ccccc2)C2(S1)SC(C(C)=O)=C(C)N2c1ccccc1 (stereo unspecified) | inconclusive [inhibitor, partial curve] | 
23 | O=C(CC1C(=O)NCCN1Cc1ccc(-c2ccccc2)cc1)NCC1CC1 (stereo unspecified) |  | inconclusive: -30.5% [inhibitor]
24 | CCC(C)(C)C1CCC(NC(=O)N2CCN(c3ccccc3O)CC2)CC1 (stereo unspecified) | inconclusive [inhibitor, partial curve] | 

Row | Structure (SMILES) | Potency | activity change, negative = growth inhibition
25 | CCCN(CC1CC1)c1cc2c(c3c1ccn3C)C1CCC2C1 (stereo unspecified) | inconclusive [inhibitor, single point] | 
26 | O=C(CSC1=NCCN1)NC1CCCCCC1 | active: 18.4 µM | 
27 | O=C(NCc1nc(-c2ccc(C(F)(F)F)cc2)no1)c1cccs1 | inconclusive [inhibitor, single point] | 
28 | COc1cccc(NC(=O)c2c(C)nn(-c3ccccc3)c2Cl)c1 | inconclusive [inhibitor, partial curve] | 
29 | O=C(C[C@@H]1C/C=C\C[C@H](Cc2ccc(F)cc2)C(=O)OC[C@@H](c2ccccc2)NC1=O)NCCO | inconclusive [inhibitor, partial curve, poor fit] | 
30 | O=C(CCSc1ccccc1Cl)Nc1cccc([N+](=O)[O-])c1 | inconclusive [inhibitor, single point] | 
31 | CC(C)(C)c1nc2c(Br)cc(Br)cc2c(=O)o1 |  | inconclusive: -31.6% [inhibitor]
32 | COc1cccc(C2C(C(=O)Nc3ccc(C)cc3C)=C(C)Nc3nc4ccccc4n32)c1OC (stereo unspecified) | inconclusive [inhibitor, single point] | 
33 | Fc1ccc(/C=N/NC2=Nc3cccc4cccc2c34)cc1 | inconclusive [inhibitor, single point] | 
34 | O=C(Cc1sc(-c2ccccc2Cl)nc1-c1ccccc1)Nc1ccccc1 | inconclusive [inhibitor, single point] | 
35 | CC1(C)C(=O)N(CC(=O)Nc2ccc(Br)cc2F)c2ccccc21 | inactive | 
36 | O=C(CSc1nc2ccccc2c(=O)n1-c1ccccc1)N1CCc2ccccc2C1 | active: 16.4 µM | 
37 | Cc1ccc(C(=O)/C=C/c2cn(CC(O)CN3CCOCC3)c3ccccc23)cc1 (stereo unspecified) | inconclusive [inhibitor, single point] | 
38 | CCOC(=O)c1cc(S(=O)(=O)N2CCN(c3ccccc3F)CC2)[nH]n1 | inconclusive [inhibitor, partial curve, poor fit] | 
39 | Cc1ccccc1CNC(=O)CCC(=O)N1CCOc2ccc(Cl)cc21 | inactive | 
40 | CCC(C)Sc1cccc(-c2nc3cnccn3c2NC2CCCCC2)c1 (stereo unspecified) | active: 16.4 µM | 
41 | CC(NC(=O)/C(=C/c1ccc(OC(F)F)cc1)c1ccccc1)c1ccccc1 (stereo unspecified) | inconclusive [inhibitor, partial curve] | 
42 | Cc1cc(Br)c2nc(-c3ccccc3)c(Cc3cccc(Cl)c3)n2c1 | inconclusive [inhibitor, single point] | 
43 | CCN(CC)CCCN(C(=O)c1cccs1)c1nc(-c2ccc(OC)cc2)cs1 | active: 20.6 µM | 
44 | Cc1nc2ccc(S(=O)(=O)N(C)CC(=O)Nc3cccc(C(F)(F)F)c3)cc2s1 | inconclusive [inhibitor, partial curve] | 
45 | CC(=O)c1ccc(S(=O)(=O)Nc2cccc(-c3cn4c(n3)SCC4)c2)cc1 | inconclusive [inhibitor, single point] | 
46 | OCC(O)COc1cccc2ccccc12 (stereo unspecified) | inactive | 
47 | CC(O)(c1ccccc1)c1nc(-c2cccc(F)c2)cs1 (stereo unspecified) | inactive | 
48 | COc1ccc(CCNC(=O)c2c(O)c3c([nH]c2=O)CCCC3)cc1OC | inconclusive [inhibitor, single point] | 

Row | Structure (SMILES) | Potency | activity change, negative = growth inhibition
49 | O=C(C=Cc1ccccc1F)c1ccccc1 | inconclusive [inhibitor, single point] | 
50 | CN1CC(O)c2cc(N=NC(N)=O)c(O)cc21 (stereo unspecified) | inactive | 
51 | COc1ccc(CNC(=O)CN(c2ccccc2)S(=O)(=O)c2ccccc2[N+](=O)[O-])cc1 | inconclusive [inhibitor, single point] | 
52 | COc1cccc(CNC(=O)CCC(=O)N2CC(C)Oc3ccccc32)c1OC (stereo unspecified) | inconclusive [inhibitor, single point] | 
53 | CSCCC(=O)N1CCC(n2nccc2NC(=O)CCc2ccccc2)CC1 | inactive | 
54 | CC[C@@]1(C(=O)OC)N[C@H](CN(C)C(=O)NC(C)C)[C@@H]2C(=O)N(Cc3ccccc3)C(=O)[C@@H]21 | inconclusive [inhibitor, single point] | 
55 | N=c1c2c3c(sc2ncn1Cc1ccco1)CCCCC3 | inconclusive [inhibitor, single point] | 
56 | COc1ccccc1C1CN(CC(=O)N2CCC(N3CCOCC3)CC2)Cc2ccccc2O1 (stereo unspecified) | inactive | 
57 | CCCCN(CC)CCCNC(=O)Nc1sc2nc3n(c(=O)c2c1C)CCC(C)CC3 (stereo unspecified) | active: 20.6 µM | 
58 | COc1ccccc1CNC(=O)[C@@H]1CCCN1S(=O)(=O)c1ccccc1F | inactive | 
59 | CN(Cc1cnn(-c2ccccc2)c1)C(=O)c1ccc(S(=O)(=O)NCc2ccco2)cc1 | inconclusive [inhibitor, partial curve] | 
60 | COc1ccc(C(=O)N2CC3(CC(c4cccc(NC(=O)CC(c5ccccc5)c5ccccc5)c4)=NO3)C[C@H]2C(N)=O)cc1 (stereo partly specified) | inconclusive [inhibitor, single point] | 
61 | COc1cccc(-c2ccc3ncnc(NCc4cccnc4)c3c2)c1 | inconclusive [inhibitor, partial curve, poor fit] | 
62 | CC(NC(=O)C1CCN(c2nc3ccccc3nc2C(F)(F)F)CC1)c1ccccc1 (stereo unspecified) | inconclusive [inhibitor, full curve, poor fit] | 
63 | O=C(N[C@H]1CC1c1ccccc1)c1ccc([N+](=O)[O-])cc1 (stereo partly specified) | inconclusive [inhibitor, partial curve, poor fit] | 
64 | CC#CC[N+](C)(C)CCCCCCCCCCCC | active: 0.461 µM | 
65 | Cc1ccc(NS(=O)(=O)c2ccc3c(c2)c(=O)n(C)c(=O)n3C)cc1F | active: 16.4 µM | 
66 | O=C1NC(=O)C(Cc2cccc(Oc3ccccc3)c2)S1 (stereo unspecified) | inactive | 
67 | Cc1sc(-c2cccnc2)nc1OC(=O)C1CC1 | inactive | 
68 | COc1cc2cc(C(C)(C)O)oc(=O)c2cc1OC | inactive | 
69 | Cc1ccc(NC(=O)CO/N=C/c2ccccc2C)c(C)c1 | inconclusive [inhibitor, single point] | 
70 | Cc1ccc2c(c1)C1CN(C)CCC1N2C(=O)COc1ccccc1F (stereo unspecified) | inactive | 
71 | O=C(O)CSc1nc(-c2ccccc2)c(-c2ccccc2)[nH]1 | inactive | 
